From article PMC12136788 come the findings set out here.

B1: chr1:55207850:55207851:+_ENSMUSG00000025979_ENSMUST00000162364|mus_mus|motif|central (ssRNA)
RNA: GGGAGUUCUACAGUCCGACGAUCCCGGUGAUGAAAAUAGGCAUGUGAAAAUAUUCUAUAAAUCCUACGGCACACUGAUCCGGGUUUUGCUACAGAUGAUUCUUUUAUGCUAACCCUGCUGGGAAAAUAUUUAUUGCUAUUCAGCAACAGAGGAUUGAGCAUCA
B2: chr19:29884105:29884106:-_ENSMUSG00000074909_ENSMUST00000099525|mus_hu|FALSE|FALSE (ssRNA)
RNA: GGGAGUUCUACAGUCCGACGAUCAGGGAGAAAACAGUUCUCUGAUUUAUAAUAAAAUCUAUUCACAACACUUAUUUGUAGUUACUUUUAUAAUAGAUAAUAUUCAAGUUAUAUUAAAGUGCUUCAAGCAAAAUUUAGCAACUCCAACAGAGGAUUGAGCAUCA
B3: chr3:87342203:87342204:+_ENSMUSG00000003382_ENSMUST00000170036|mus_hu|FALSE|FALSE (ssRNA)
RNA: GGGAGUUCUACAGUCCGACGAUCCGGAUAUGGAGUGAUUUCUUCUCUCGCUGCUGCGACGCAGAUCUGAGCCACAGUCAGGUACCAAUGUACACGACAUAGGCACAUGUGCAAACACAAAGAAGGUGGGCUGCUGCUUCUUUCCAACAGAGGAUUGAGCAUCA
B4: chr4:136884974:136884975:-_ENSMUSG00000006699_ENSMUST00000030417|mus_mus|FALSE|FALSE (ssRNA)
RNA: GGGAGUUCUACAGUCCGACGAUCCACCCACUUUUCUUUCACAUUUUCAAAUGAGGAUGGAGAGACCACUGAGAAACAUACUAGAAAAACAUCUGUCUGUGGAUAACUUAGCGGUCGUAGUCUGUCAUAAUCCUCUUGCCCUGCCAACAGAGGAUUGAGCAUCA
B5: chr12:111160049:111160050:-_ENSG00000186298_ENST00000335007|hu_mus|FALSE|FALSE (ssRNA)
RNA: GGGAGUUCUACAGUCCGACGAUCAAACUCGCCACAGUAGUUGGGUGCAGAAAACAGAGUGACUAACUGCCUCUUUGCAAAAAACUCAUAGCCAUCUUCAACCACCUGAUGGGCUCUACAUAUAAGAUCCAAAUCAUGCUUAUGCAACAGAGGAUUGAGCAUCA
B6: 108935614_108935734_498_3pUTR_ENSG00000138796_ENST00000309522|human|control|control (ssRNA)
RNA: GGGAGUUCUACAGUCCGACGAUCACUUGUCCAGCCUUUUGAAGAGCUCGUUUUUCACCUUCAGAUUCUCCACGAUGGCUUCCACCACCAAGUCUGUGCUGUGGACAACGGAGGCUGCAUCCGUGCUGGUCGCUAUGGUGCUCACAACAGAGGAUUGAGCAUCA
B7: chr10:82349929:82349930:+_ENSMUSG00000020250_ENSMUST00000020484|mus_mus|FALSE|FALSE (ssRNA)
RNA: GGGAGUUCUACAGUCCGACGAUCAUAACAUUUGUUGUUAUCCCGGGAUGGGACUGUCCAUUCCAAUGGCCAAAAGAAACUAUGGUAAACUUCAAUAUUUUCUUCCCCAAAUUUCUCUACGGCUUUUUCUUCAGAGAGGCCACACAACAGAGGAUUGAGCAUCA
B8: chr2:66073698:66073699:-_ENSMUSG00000034848_ENSMUST00000102718|mus_hu|FALSE|FALSE (ssRNA)
RNA: GGGAGUUCUACAGUCCGACGAUCUUGCUGGAUUUCAUUUAAAAAUUCUAGCUGCUGAUCUGCAUCCUGUAAUUGCCCUUCUAUCAACUGACAUUGGAUAAAUCCAACUAGGGCAGACACACUAGUCUCAUCAAGUGUCAUGGCCAACAGAGGAUUGAGCAUCA
B9: chr11:102767452:102767453:-_ENSMUSG00000051378_ENSMUST00000021311|mus_mus|FALSE|FALSE (ssRNA)
RNA: GGGAGUUCUACAGUCCGACGAUCGGUGAGGAAGGCAGGCUAGGGACUCUUGGCAUUGGCAGCUGUAGACAAGAGAAGGCUAUUGGCGAAUCAGAACAAUCGUGGAUGCCAGGAGUCCCUCGUGGUCAGAACACCCAGUUAAUACAACAGAGGAUUGAGCAUCA
B10: chr6:30681072:30681073:-_ENSG00000137337_ENST00000376406|hu_hu|FALSE|FALSE (ssRNA)
RNA: GGGAGUUCUACAGUCCGACGAUCGGAGGCCUCCUCUGUGGCUGGUUGCUGACCUUCUUCCACAUCUGUGUCACUGUUCAAAUUGAAGGCAAAAGGCGGCCCAAGGCCGCCCAGGACCGGGGAAUGCCCCUCUUCAUCACUCUCCAACAGAGGAUUGAGCAUCA
B11: chr12:73642893:73642894:+_ENSMUSG00000034501_ENSMUST00000044352|mus_hu|FALSE|FALSE (ssRNA)
RNA: GGGAGUUCUACAGUCCGACGAUCGAAGAAUAGUAGAGCAGUGCCUCCUGUACUGCCAUACAGCAAGGUUAUUCUAUUUGGGAGCAGAUACCAUGUUCCAAGACCACACGCUAAUCCAGCAAGAAUAGAAUGAAAAACUGUAUUCAACAGAGGAUUGAGCAUCA
B12: chrX:70926549:70926550:+_ENSMUSG00000019558_ENSMUST00000114465|mus_mus|FALSE|FALSE (ssRNA)
RNA: GGGAGUUCUACAGUCCGACGAUCCAGGCAGACCCCCAAACUGUCAAGGAAAGGCAAGCCCCCGGAGGGAUGAGUGGGGGCUAAAGUUGGGGCUGCUAUGGCUACCAAAGGAUGAGCUGGUGAUGUGAGCUGGGGGUGCCUGUUCAACAGAGGAUUGAGCAUCA
B13: chr4:110441554:110441555:+_ENSG00000138802_ENST00000265175|hu_hu|motif|central (ssRNA)
RNA: GGGAGUUCUACAGUCCGACGAUCUGAUAAUCCUUCUUGUAAAUUGUAGAAAUGAAUAGUGCUAUCAAAGGUCAUGAAUCCGGUUCUUGUUCGUGAAUCUCCAGGAAGCUUGUCUAGAUUUUCUAGGAGUGACUGGCACAAAAUCAACAGAGGAUUGAGCAUCA
B14: chr14:70237991:70237992:+_ENSG00000100650_ENST00000557154|hu_hu|FALSE|FALSE (ssRNA)
RNA: GGGAGUUCUACAGUCCGACGAUCCCUGCUUCUUGACCGGCUGUAAGAUUUGCGACUACGGGAACGGGAUCGGCUACGAGACCUAGAGGAACUUCUGGUCCGGGAUCGAGACCUGCUUCUUGACCUACUGUGCCUUUUGCUGCCCAACAGAGGAUUGAGCAUCA
B15: chr1:187239687:187239688:+_ENSMUSG00000026615_ENSMUST00000046514|mus_mus|FALSE|FALSE (ssRNA)
RNA: GGGAGUUCUACAGUCCGACGAUCCCAGGAGCACUGGUAUGCAAACUGCUUUUCUCCUGGUGUCUUGGGAUCUUCAAAAACUAUUUCACACAUUUUGGAGAAAUUCUGGCCUAAAUGGUGUGAUGUUGCUCCCUGAAUGGCGCGCAACAGAGGAUUGAGCAUCA
B16: 124644708_124644828_621_CDS_ENSG00000120458_ENST00000374979|human|control|control (ssRNA)
RNA: GGGAGUUCUACAGUCCGACGAUCCAGCUCCUGGUACAAGCCACUACUGUUAAUAAGUACAGGCUGGCAGGGCUGAGCAUCCCAUCCUCCCUGACCAAACACCUGUUCCAACUGUUCAAAUGUGUAACUGCUCUUUCUUUUCCCCAACAGAGGAUUGAGCAUCA
B17: chr11:111487033:111487034:+_ENSG00000170145_ENST00000304987|hu_hu|FALSE|FALSE (ssRNA)
RNA: GGGAGUUCUACAGUCCGACGAUCCAUUACCUGAUAAAGUUUGAUUAUGUGAGGGUGGUCUAACAUUUUCAUUAUUUGUACUUCUCGGUAGAUUUUCUCAAGGUUCACUGCAUCCAGCUGAGACUUAUCGAUUAUUUUUAUUGCCAACAGAGGAUUGAGCAUCA
B18: 122831585_122840759_262_3pUTR_ENSG00000125676_ENST00000245838|human|control|control (ssRNA)
RNA: GGGAGUUCUACAGUCCGACGAUCCAAUUUGUCUCAAUGUCUAAUAUGCAGAAUACAUCAGCAAGAAUGGAGGGCAUAUCCUCACGAAAUUCACUAAUGUCACUAAGAACAUUAGAUGCCUGUUCAUGCUUUAGAUUUCCUUUACAACAGAGGAUUGAGCAUCA
B19: chr16:94664741:94664742:+_ENSMUSG00000040785_ENSMUST00000117648|mus_hu|mus_mus_mus_hu_False|78_78 (ssRNA)
RNA: GGGAGUUCUACAGUCCGACGAUCUGGUACUGAUCUUGGUAGCUGAUAUUCAGGAGAAAUGUUGGCCAAGGGUGUAUAUAUGCUGGUGUACUGGGGCAAACCUGGUAACACGUUUAUGUAUGCUGGCGGUGUCUGGGUGAUAUCCAACAGAGGAUUGAGCAUCA
B20: chr13:98020659:98020660:+_ENSMUSG00000041773_ENSMUST00000041623|mus_hu|motif|central (ssRNA)
RNA: GGGAGUUCUACAGUCCGACGAUCACAAUUACAAGACAAGGACUAGAUCACAGGUUUGUUCAUUCAUAUUUAAACCAUGUGCGGCUUGCACCAAAAAUCCCACCCCCCUCCCUCGCCCCUUUCCUUCAUGUCCAGUUAGAGCAUCAACAGAGGAUUGAGCAUCA
B21: chr5:145543945:145543946:-_ENSG00000133706_ENST00000545646|hu_hu|hu_hu_hu_mus_True|1_48 (ssRNA)
RNA: GGGAGUUCUACAGUCCGACGAUCCUGAACGGCCAGUGGUGGGAAAUAAUCAAGCCAGUGCUCUGCUUCAGAAAACUUCACUAUGUCUUCAUCAGACAGCCCAAGGGAUUUCAUAAUGUCCCACUGGUACUUAGAAGAUCCAGCCAACAGAGGAUUGAGCAUCA
B22: chr18:52893488:52893489:-_ENSG00000196628_ENST00000354452|hu_hu|hu_hu_hu_mus_True|38_38 (ssRNA)
RNA: GGGAGUUCUACAGUCCGACGAUCUAUUUAGACCAUUUCCGCGGAGUUAUGGCAUUUACUCAGUGCUGAUAGGUGGAAAAACUACUUCAACAGGGAUUUUUUUUUUUCUUAAUACAUGCCAAGAUUGUGUGGCUGUCAAAACAGCAACAGAGGAUUGAGCAUCA

Some of the results follow.

The target of this assay is T1, UNK ZnF1-3 (human, UniProt Q9C0B0 31-174).
T1 sequence: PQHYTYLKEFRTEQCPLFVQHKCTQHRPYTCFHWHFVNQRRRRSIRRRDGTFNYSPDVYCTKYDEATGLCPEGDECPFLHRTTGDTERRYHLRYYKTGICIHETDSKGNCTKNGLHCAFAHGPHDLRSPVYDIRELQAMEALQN
Nature of the assay: nsRBNS (natural sequence RNA bind-n-seq); RBNS binding buffer (assumed for nsRBNS): 25 mM Tris pH 7.5, 150 mM KCl, 3 mM MgCl2, 0.01% Triton X-100, 500 ug/ml BSA, 20 U/ml SUPERase-In, 4 C; UNK is unkempt and MSI1 is Musashi-1; names of the RNAs are library labels; protein concentration not given here; high values mean tight binding.
Regarding B1, the binding signal amounted to 1.48 enrichment R. As for B2, the binding signal amounted to 0.926 enrichment R. Take B3: the binding signal was determined as 0.74 enrichment R. Molecule B4 yielded a binding signal of 1.37 enrichment R.

In the case of B5, the binding signal was found to be 1.02 enrichment R.

Consider B6, for which the binding signal is 1.01 enrichment R. Regarding B7, the binding signal came to 0.633 enrichment R. With B8 the figure was 0.843 enrichment R; with B9, 0.972 enrichment R; with B10, 0.421 enrichment R. As to B11, the binding signal came to 0.914 enrichment R. B12 had a binding signal of 1.58 enrichment R.

Regarding B13, the binding signal amounted to 1.68 enrichment R. In the case of B14, the binding signal worked out at 1.02 enrichment R.

Molecule B15 came in with a binding signal of 0.709 enrichment R. Consider B16, for which the binding signal was 1.3 enrichment R.

B17: the binding signal turned out to be 0.869 enrichment R. Molecule B18 displayed a binding signal of 0.826 enrichment R. Next, B19: 0.946 enrichment R; B20: 1.12 enrichment R. B21 yielded a binding signal of 1.3 enrichment R. Next, B22: 1.16 enrichment R.
